According to US20220323594A1, “LIPIDATED CATIONIC PEPTIDE-PEG COMPOSITIONS FOR NUCLEIC ACID DELIVERY” (NUTCRACKER THERAPEUTICS, INC., priority 2019, published 2022):
At least one structure is not confirmed: it was looked up by name or label, or the drawing left a doubt.

Assays:
[1] = Dynamic light scattering (DLS) of mRNA/peptoid formulations: particle size and polydispersity; format: physicochemical; details: Fluc mRNA/peptoid formulation; for Size PDI: size polydispersity index by DLS, 5:1 mass ratio; for Size (nm): volume average particle size/diameter by DLS, 5:1 mass ratio peptoid:cargo
Experimental: (§1) To prepare nanoparticle formulations, the amino lipidated peptoid is mixed by pipetting with nucleic acid at a mass ratio between approximately 1:1 (peptoid:cargo) and 20:1. Prior to formulation, amino lipidated peptoid and nucleic acid cargo were diluted in ethanol and acidic buffer (PBS adjusted to pH 5.5 with 0.1 M HCl) respectively to a volume ratio of 1:3 and to target a final cargo concentration of approximately 0.05 mg/mL to 0.2 mg/mL. The exemplary amino lipidated cationic peptoids described in Example 2 were combined with firefly luciferase (Fluc) mRNA to form nanoparticle compositions to be evaluated for therapeutic and/or prophylactic purposes in vitro or in vivo. The formulations were prepared according to the protocol of Example 3 and mixed by simple pipetting. The mRNA/peptoid formulation at a 5:1 mass ratio of peptoid:cargo were evaluated by dynamic light scattering (DLS) in order to determine the volume average particle size/diameter (nm) of the mRNA/peptoid complex and the size polydispersity index (PDI) within the formulation. The percentage of mRNA encapsulation for each formulation of the exemplary compounds were determined by fluorescence of the Qubit RNA HS (Invitrogen) dye before and after lysis of particles by Triton X-100.

[2] = mRNA encapsulation by fluorescence of Qubit RNA HS dye before and after lysis with Triton X-100; format: physicochemical; details: percentage of mRNA encapsulation; Fluc mRNA/peptoid formulation, 5:1 mass ratio
Experimental: as §1, with “The” for “To prepare nanoparticle formulations, the amino lipidated peptoid is mixed by pipetting with nucleic acid at a mass ratio between approximately 1:1 (peptoid:cargo) and 20:1. Prior to formulation, amino lipidated peptoid and nucleic acid cargo were diluted in ethanol and acidic buffer (PBS adjusted to pH 5.5 with 0.1 M HCl) respectively to a volume ratio of 1:3 and to target a final cargo concentration of approximately 0.05 mg/mL to 0.2 mg/mL. The”

HeLa cells [3] = experiment: In vitro expression of firefly luciferase (Fluc) after treatment with Fluc mRNA/amino lipidated peptoid formulations, no PEG or 2% DMG-PEG2000; format: cell-based
Experimental: The efficacy of mRNA/amino lipidated peptoid formulations was evaluated in vitro based on their ability to deliver the firefly luciferase (Fluc) reporter gene to cultured cells. Amino lipidated peptoids were combined with Fluc mRNA at a 5:1 w/w ratio, and the resulting particles were added to cultured HeLa cells at a dose of 100 ng/well (in 100 μL total volume). The resulting luciferase expression (RLU) was measured by a luminescence plate reader after 6 hours and 24 hours of treatment. […] In addition to evaluating nanoparticle complexes formed between mRNA cargos and amino lipidated peptoids alone, multicomponent formulations containing a small amount of PEG-lipid DMG-PEG2000 were also tested for in vitro Fluc mRNA delivery. In these formulations, DMG-PEG2000 was pre-mixed with candidate peptoid at an overall 2% incorporation (w/w), while maintaining the same 5:1 mass ratio of peptoid:mRNA used previously.

HeLa cells [4] = experiment: In vitro Fluc expression with variable peptoid:mRNA mass ratio, 2% DMG-PEG2000; format: cell-based; details: 24 h; for Observed Luciferase Expression (RLU) for Given Formulation Mass Ratio 2:1: 2% (w/w) DMG-PEG2000, peptoid:mRNA 2:1; for Observed Luciferase Expression (RLU) for Given Formulation Mass Ratio 3.5:1: 2% (w/w) DMG-PEG2000, peptoid:mRNA 3.5:1; for Observed Luciferase Expression (RLU) for Given Formulation Mass Ratio 5:1: 2% (w/w) DMG-PEG2000, peptoid:mRNA 5:1; for Observed Luciferase Expression (RLU) for Given Formulation Mass Ratio 7.5:1: 2% (w/w) DMG-PEG2000, peptoid:mRNA 7.5:1
Experimental: The charge ratio dependence of amino lipidated peptoid delivery vehicles was evaluated by formulating particles between Fluc mRNA and delivery vehicles at varying mass ratios. Formulations were varied between 2:1 and 7.5:1 peptoid:mRNA (w/w) ratios (2:1, 3.5:1, 5:1 and 7.5:1). In addition, the role of DMG-PEG2000 was also explored with the mass ratios, either by excluding DMG-PEG2000 or incorporating DMG-PEG2000 at 2% (w/w) relative to amino lipidated peptoid. Fluc expression from these formulations was measured in HeLa cells following treatment for 24 hours. […] FIGS. 6B and 6C show plots of the average bioluminescence (RLU) for HeLa cells treated with the formulations of exemplary amino lipidated cationic peptoid compounds 1-36, all formulated with 2% w/w DMG-PEG2000.

Balb/c mice [5] = experiment: In vivo whole-body expression of Fluc following IV administration; details: Balb/c mice (n=3), IV tail-vein, 0.5 mg/kg, 5:1 peptoid:mRNA, 2% w/w DMG-PEG2000, 8 hours
Experimental: (§2) Amino lipidated peptoid delivery vehicles are effective for in vivo administration of Fluc mRNA to Balb/c mice (n=3) through multiple routes of administration. Briefly, representative amino lipidated peptoid/Fluc formulations (prepared at a 5:1 mass ratio of amino lipidated peptoid:mRNA unless noted, with 2% w/w DMG-PEG2000) were administered at a dose of 0.5 mg/kg via a tail-vein injection, and the resulting bioluminescence was quantified after 8 hours.

Balb/c mice [6] = experiment: In vivo organ-specific bioluminescence (biodistribution of Fluc) following IV administration; details: for Total Flux (p/s) Liver: dissected liver; for Total Flux (p/s) Lung: dissected lung; for Total Flux (p/s) Spleen: dissected spleen; for organ localization of Fluc expression: organ-specific bioluminescence
Experimental: as §2, with “hours. […] Organ-specific bioluminescence was quantified by sacrificing the treated animal, dissecting out the organs of interest, and separately quantifying the resulting bioluminescence. […] FIG. 7C depicts a bar chart quantifying the organ-specific biodistribution of the formulations as a function of total photon flux.” for “hours.”

Balb/c mice [7] = experiment: In vivo expression of Fluc following subcutaneous or intramuscular administration; details: for Total Flux (photons/sec) I.M. (0.05 mpk): mRNA 0.05 mpk; for Total Flux (photons/sec) S.C. (0.1 mpk): subcutaneous, mRNA 0.1 mpk
Experimental: In addition to IV administration, amino lipidated peptoids are also effective for local administration of mRNA through subcutaneous (S.C.) or intramuscular (I.M.) routes of administration. […] For these examples, mRNA was administered at a dose of 0.1 milligrams/kilogram (mpk) for subcutaneous or 0.05 mpk for intramuscular. In these cases, the overall expression was higher following intramuscular injections. […] Additional experiments were carried out to assess any variability in biodistribution as a function of the loading mass ratio of amino lipidated peptoid to the Fluc mRNA. FIG. 8A depicts a plot of total photon flux for formulations of amino lipidated peptoid compound 28 with 2% DMG-PEG 2000 and Fluc mRNA at different peptoid:mRNA ratios (1:1, 2:1, 5:1, 7.5:1 and 10:1).

[8] = no PEG, peptoid:Fluc mRNA 5:1 w/w, 100 ng/well, 6 h of treatment
[9] = no PEG, peptoid:Fluc mRNA 5:1 w/w, 100 ng/well, 24 h of treatment
[10] = with 2% (w/w) DMG-PEG2000, peptoid:mRNA 5:1, 6 h after treatment
[11] = with 2% (w/w) DMG-PEG2000, peptoid:mRNA 5:1, 24 h after treatment

SMILES	Size PDI [1]	Size (nm) [1] [nm]	% Encapsulation [2] [%]	Luciferase Expression (RLU) 6 h (HeLa cells [3]; [8]) [RLU]	Luciferase Expression (RLU) 24 h (HeLa cells [3]; [9]) [RLU]	Luciferase Expression (RLU) 6 h (HeLa cells [3]; [10]) [RLU]	Luciferase Expression (RLU) 24 h (HeLa cells [3]; [11]) [RLU]	Observed Luciferase Expression (RLU) for Given Formulation Mass Ratio 2:1 (HeLa cells [4]) [RLU]	Observed Luciferase Expression (RLU) for Given Formulation Mass Ratio 3.5:1 (HeLa cells [4]) [RLU]	Observed Luciferase Expression (RLU) for Given Formulation Mass Ratio 5:1 (HeLa cells [4]) [RLU]	Observed Luciferase Expression (RLU) for Given Formulation Mass Ratio 7.5:1 (HeLa cells [4]) [RLU]	Total Flux (photons/sec), whole body (Balb/c mice [5]) [photons/sec]	Total Flux (p/s) Liver (Balb/c mice [6]) [p/s]	Total Flux (p/s) Lung (Balb/c mice [6]) [p/s]	Total Flux (p/s) Spleen (Balb/c mice [6]) [p/s]	organ localization of Fluc expression (Balb/c mice [6])	expression after IM administration compared with Compound 8 (Balb/c mice [7]; intramuscular)	Total Flux (photons/sec) I.M. (0.05 mpk) (Balb/c mice [7]; intramuscular) [photons/sec]	Total Flux (photons/sec) S.C. (0.1 mpk) (Balb/c mice [7]) [photons/sec]
CCCCCCCCCCN(CC(=O)N(CC(=O)N(CCCCCCCCCC)CC(=O)N(CC(N)=O)CC(CC)CCCC)CC(CC)CCCC)C(=O)CN(CCc1ccccc1)C(=O)CN(CCc1ccccc1)C(=O)CN(CCN)C(=O)CN(CCc1ccccc1)C(=O)CN(CCc1ccccc1)C(=O)CN(CCN)C(=O)CN(CCc1ccccc1)C(=O)CN(CCc1ccccc1)C(=O)CNCCN (stereo not drawn) [Compound 24]	0.135	161	87.0	1.79E+04	3.43E+04	9.70E+03	7.93E+03	1.53E+04	5.16E+04	7.71E+04	3.03E+04	2.85E+08	5.16E+07	9.63E+07	4.03E+07	a mix of liver, spleen, and lung	significantly outperformed that example	4.18E+06	4.36E+06
CCCCCCCCCCN(CC(N)=O)C(=O)CN(CCCCCCCCCC)C(=O)CN(CCCCCCCCCC)C(=O)CN(CCCCCCCCCC)C(=O)CN(CCc1ccccc1)C(=O)CN(CCc1ccccc1)C(=O)CN(CCN)C(=O)CN(CCc1ccccc1)C(=O)CN(CCc1ccccc1)C(=O)CN(CCN)C(=O)CN(CCc1ccccc1)C(=O)CN(CCc1ccccc1)C(=O)CNCCN [Compound 8]	0.077	234	82.5	1.10E+04	1.33E+04	5.32E+03	3.81E+03	2.36E+04	2.48E+04	3.78E+04	3.80E+04	3.24E+08	1.04E+07	4.68E+08	3.28E+07	nearly all of that expression was localized in the lung		2.31E+06	5.86E+05
CCCCCCCCCCN(CC(N)=O)C(=O)CN(CCCCCCCCCC)C(=O)CN(CCCCCCCCCC)C(=O)CN(CCCCCCCCCC)C(=O)CN(CCCCCCCCCC)C(=O)CN(CCc1ccccc1)C(=O)CN(CCc1ccccc1)C(=O)CN(CCN)C(=O)CN(CCc1ccccc1)C(=O)CN(CCc1ccccc1)C(=O)CN(CCN)C(=O)CN(CCc1ccccc1)C(=O)CN(CCc1ccccc1)C(=O)CNCCN [Compound 19]	0.158	276	70.9	8.20E+03	1.09E+04	1.64E+04	1.20E+04	1.90E+03	3.13E+04	4.39E+04	2.98E+04	2.02E+08	8.37E+06	4.17E+07	8.75E+07			7.20E+06	1.62E+06
